Laboratory results published in patent US20250101076A1.

Molecular target: extracellular domain of the growth hormone receptor (human) (UniProt P10912)
Assay: competition ELISA, plate coated with GHR extracellular domain, inhibition of biotin-hGH binding; affinity relative to hGH

Chain of UniProt P10912 (P10912 19-264): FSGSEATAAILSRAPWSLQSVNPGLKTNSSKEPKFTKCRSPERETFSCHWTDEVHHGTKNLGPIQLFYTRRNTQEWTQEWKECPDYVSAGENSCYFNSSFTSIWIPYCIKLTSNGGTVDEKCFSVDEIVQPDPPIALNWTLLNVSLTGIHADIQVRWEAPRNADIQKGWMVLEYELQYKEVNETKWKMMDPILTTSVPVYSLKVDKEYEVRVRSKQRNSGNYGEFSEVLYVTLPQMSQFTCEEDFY

pegvisomant (ligand)
IC50 hGH / IC50 GHRA: 0.026 and 2.6% [one cell]

Not every entry of the source has a single result; some have several. They are shown here; other results are not. The source may hold further records. Values given together seem to repeat one measurement (runs, samples, wells or individuals).
